Test results: PubChem BioAssay AID1468 (National Center for Advancing Translational Sciences (NCATS), 2008)
In all, about 280,000 compounds went through this assay and about 1,100 (0.39%) were called active. The shares of active, inactive and inconclusive entries below differ from those in the screen. The call rests on the fitted dose curve; in most records, active means well fitted inhibition curve with a large enough effect; inconclusive means small, poorly fitted or top-dose-only effect, or effect the other way; inactive means flat fitted curve, though single readings scatter. Potencies of inconclusive entries are left out as doubtful fits.

biological target: Microtubule-associated protein tau (Homo sapiens) (UniProt P10636); experiment: qHTS for Inhibitors of Tau Fibril Formation, Fluorescence Polarization; details: K18 P301L tau heparin fibrillization, Alexa594 FP, 6 h; series mostly up to 57.7 µM; activity, negative = inhibition: at the top concentration; further: nearly all actives have a fitted effect of over 55% in size
UniProt P10636, sequence (P10636 whole entry, looked up): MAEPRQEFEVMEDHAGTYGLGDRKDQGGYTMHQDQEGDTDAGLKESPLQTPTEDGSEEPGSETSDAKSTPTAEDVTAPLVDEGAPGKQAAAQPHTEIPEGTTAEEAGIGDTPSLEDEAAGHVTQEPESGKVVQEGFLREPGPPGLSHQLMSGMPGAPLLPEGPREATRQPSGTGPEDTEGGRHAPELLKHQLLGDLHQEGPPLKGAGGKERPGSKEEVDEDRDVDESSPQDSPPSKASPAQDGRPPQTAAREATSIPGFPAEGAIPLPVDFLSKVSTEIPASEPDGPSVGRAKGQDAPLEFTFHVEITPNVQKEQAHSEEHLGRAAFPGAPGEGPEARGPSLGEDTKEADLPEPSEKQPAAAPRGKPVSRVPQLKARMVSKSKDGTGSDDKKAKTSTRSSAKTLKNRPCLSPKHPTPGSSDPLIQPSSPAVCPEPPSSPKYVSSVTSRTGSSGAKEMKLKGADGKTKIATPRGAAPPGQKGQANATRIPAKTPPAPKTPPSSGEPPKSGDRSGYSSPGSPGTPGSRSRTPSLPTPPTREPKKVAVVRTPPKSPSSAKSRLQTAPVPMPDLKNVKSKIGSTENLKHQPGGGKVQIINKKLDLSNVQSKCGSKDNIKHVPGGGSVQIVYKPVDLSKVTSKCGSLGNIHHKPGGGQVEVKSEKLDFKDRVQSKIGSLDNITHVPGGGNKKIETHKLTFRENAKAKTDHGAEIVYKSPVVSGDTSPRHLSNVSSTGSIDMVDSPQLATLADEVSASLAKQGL
Outline: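 Heparin (20 uM) drove fibril formation of recombinant tau K18 P301L, 15 uM unlabeled with 0.24 uM Alexa 594 label, for 6 hr at 37 C in 100 mM sodium acetate pH 7. Fluorescence polarization (555/632 nm) read 1 hr after 30 uM ThT.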
On the % scale 0 is the no-effect control and ±100 the full control effect; potency means the concentration at half of the fitted maximal effect; tags describe the fitted curve by direction and shape.

How did the “activity, negative = inhibition” value turn out when COC(=O)c1ccc(NC(=O)C2CCCO2)cc1 (stereo unspecified) was run?
Its value is inactive: -4.59%.

For O=C(/C=C/c1ccco1)Nc1cc(Cl)ccc1C(=O)O, which Potency is on record?
Its Potency is inconclusive [inhibitor, partial curve].

Which “activity, negative = inhibition” value does the source give for c1cc(Nc2ncnc3sccc23)cc(-c2nnc3n2CCCCC3)c1 here?
The value was inactive: -1.71%.

For COc1ccc(-n2c(-c3ccc(F)cc3)cn3c4c(=O)n(C)c(=O)n(C)c4nc23)cc1, which “activity, negative = inhibition” value is on record?
Its value is inactive: 1.36%.

How did the Potency turn out when S=C(NCCC(c1ccccc1)c1ccccc1)Nc1ccc(Cl)cc1 was run?
The Potency was active: 14.1 µM.

With CCOC(=O)c1cnc(-n2nc(C)cc2C)nc1NCCc1ccccc1 as the molecule, how does the “activity, negative = inhibition” value read?
Its value is inactive: -3.31%.

How did the Potency turn out when Cc1ccc(C2N(c3nccs3)C(=O)C3CCCN32)cc1 (stereo unspecified) was run?
Its Potency is inconclusive [inhibitor, single point].

Which “activity, negative = inhibition” value does the source give for CC(C)(C)NC(=S)N/N=C\c1ccc(-c2ccc([N+](=O)[O-])cc2)o1 here?
Its value is inactive: 11.8%.

How did the Potency turn out when CN(C)C1C(=O)C(C(N)=O)=C(O)[C@@]2(O)C(=O)C3=C(O)c4c(O)ccc(Cl)c4[C@@H](O)C3C[C@@H]12 (stereo partly specified) was run?
Its Potency is inconclusive [inhibitor, single point].

With Cc1cc(O)c(C(C)C)cc1N=Cc1cc([N+](=O)[O-])ccc1O as the molecule, how does the Potency read?
Its Potency is active: 7.08 µM.

For CCc1ccc[n+](-c2[nH]c(=O)sc2/C=N/NC([S-])=Nc2ccccc2)c1, which Potency is on record?
Its Potency is inconclusive [inhibitor, partial curve].

Which “activity, negative = inhibition” value does the source give for CCOC(=O)C(=O)C1=C(N2CCOCC2)/C(=C\c2cccc([N+](=O)[O-])c2)CC1 here?
The value was inactive: 1.17%.

How did the Potency turn out when COC(=O)c1ccc(NC(=O)CSc2ccc(-c3cccs3)nn2)cc1 was run?
The Potency was inconclusive [inhibitor, partial curve].

For Cc1ccc(-c2nc3scc(CCNS(=O)(=O)c4ccc(C)c(C)c4)n3n2)cc1, which Potency is on record?
The Potency was inconclusive [inhibitor, partial curve].

With CCc1ccc(NC(=O)C(Cc2ccccc2)NS(=O)(=O)c2ccc3c(c2)CCN3C(C)=O)cc1 (stereo unspecified) as the molecule, how does the “activity, negative = inhibition” value read?
The value was inactive: -1.17%.

How did the Potency turn out when O=C(CSc1ccc2ccccc2c1)Nc1nc2ccccc2[nH]1 was run?
Its Potency is inconclusive [inhibitor, single point].

CCOc1ccc(-c2cn3c(n2)sc2cc(C(=O)NCCC4=CCCCC4)ccc23)cc1 was tested. Which “activity, negative = inhibition” value did it give?
The value was inactive: -12.1%.

With Cc1ccc(-c2nnc(SCC(=O)N3CCCc4ccccc43)n2N)cc1 as the molecule, how does the “activity, negative = inhibition” value read?
The value was inactive: -2.29%.

Which “activity, negative = inhibition” value does the source give for O=c1c2ccccc2nc(SCc2nnc(-c3ccccc3Br)o2)n1-c1ccccc1 here?
The value was inactive: 2.88%.

CCCCCCCCCCCCCCCC(=O)NCC(COP(=O)([O-])OCC[N+](C)(C)C)OCC (stereo unspecified) was tested. Which “activity, negative = inhibition” value did it give?
The value was inactive: 6.68%.

Which Potency does the source give for COc1ccccc1NS(=O)(=O)c1cc(NC(=O)c2ccc3ccccc3n2)ccc1Cl here?
Its Potency is inconclusive [inhibitor, single point].

Which Potency does the source give for O=C(N/N=C/c1ccncc1)c1ccc(COc2cccc3cccnc23)cc1 here?
Its Potency is inconclusive [inhibitor, partial curve, poor fit].

How did the Potency turn out when O=C1NC(=O)C(c2ccccc2[N+](=O)[O-])=C1Nc1ccc(O)c(Cl)c1 was run?
Its Potency is inconclusive [inhibitor, partial curve].

For CCC(C)(C)n1nnnc1C(c1cccnc1)N1CCN(c2cccc(C(F)(F)F)c2)CC1 (stereo unspecified), which Potency is on record?
The Potency was inconclusive [activator, single point].

Which “activity, negative = inhibition” value does the source give for O=C(c1cccc(Br)c1)c1conc1C(=O)c1ccco1 here?
Its value is inactive: -3.4%.

How did the “activity, negative = inhibition” value turn out when O=C(O)c1ccccc1-c1cn2cc(Cl)ccc2n1 was run?
Its value is inactive: 2.32%.

COC(=O)N/N=C/c1cccc(OCCSc2ccc(Cl)cc2)c1 was tested. Which Potency did it give?
The Potency was inconclusive [inhibitor, single point].

CC(C)/C=N/Nc1nc2c(c(=O)n(C)c(=O)n2C)n1C was tested. Which Potency did it give?
The Potency was inconclusive [inhibitor, partial curve].

COC(=O)c1cc(NC(=O)Nc2cccc(Cl)c2)ccc1Cl was tested. Which Potency did it give?
The Potency was active: 7.94 µM.

For O=C(Cc1c[nH]c2ccccc12)N1CCc2ccccc21, which Potency is on record?
The Potency was inconclusive [activator, full curve, poor fit].

How did the Potency turn out when O=[N+]([O-])c1ccc(N2CCN(C(=S)c3cccc([N+](=O)[O-])c3)CC2)cc1 was run?
Its Potency is inconclusive [inhibitor, single point].

With O=[N+]([O-])c1ccc(Nc2nc(NCCO)nc(N3CCCC3)n2)cc1 as the molecule, how does the Potency read?
The Potency was inconclusive [inhibitor, single point].

How did the Potency turn out when Cc1cc(NC(=O)C2CCCN(S(=O)(=O)c3ccc(Br)s3)C2)ccc1Br (stereo unspecified) was run?
The Potency was inconclusive [inhibitor, partial curve, poor fit].

Which Potency does the source give for COc1ccc(CC(=O)Nc2ccc(-c3nc4ccccc4s3)cc2Cl)cc1 here?
Its Potency is inconclusive [inhibitor, partial curve].

Which Potency does the source give for O=c1c2ccccc2nc(COc2ccccc2)n1/N=C/c1c[nH]c2ccccc12 here?
Its Potency is inconclusive [inhibitor, full curve, poor fit].

With O=C(NCc1ccc(Cl)cc1)C1=Cc2cc(Cl)ccc2OC1 as the molecule, how does the Potency read?
Its Potency is inconclusive [inhibitor, partial curve].

How did the Potency turn out when CCc1ccc(Nc2nnc(SC3CCOC3=O)s2)cc1 (stereo unspecified) was run?
The Potency was inconclusive [activator, single point].

With COc1cc(C(=O)Sc2ccc(C)cc2)cc(OC)c1OC as the molecule, how does the “activity, negative = inhibition” value read?
Its value is inactive: -13.9%.

How did the “activity, negative = inhibition” value turn out when CCCN(CCC)c1nn2c(=O)c(C(=O)NCc3cccc(OC)c3)cnc2s1 was run?
Its value is inactive: 6.05%.

COc1ccccc1-c1cn[nH]c1-c1ccc(OCc2ccc([N+](=O)[O-])cc2)cc1O was tested. Which Potency did it give?
Its Potency is inconclusive [inhibitor, full curve, poor fit].

With CCOC(=O)c1c(C)[nH]c(=S)c(C#N)c1-c1ccc(Cl)cc1 as the molecule, how does the “activity, negative = inhibition” value read?
The value was inactive: 2.25%.

COc1ccc2[nH]c3c(NCc4ccco4)ncnc3c2c1 was tested. Which Potency did it give?
Its Potency is inconclusive [activator, single point].

Which “activity, negative = inhibition” value does the source give for COc1cc(SC)ccc1C(=O)N(Cc1ccccc1)c1ccccn1 here?
Its value is inactive: 1.51%.

Cc1ccc(C2(c3noc(CN(C)Cc4cnn(C)c4)n3)CCCC2)cc1 was tested. Which Potency did it give?
The Potency was inconclusive [inhibitor, full curve, poor fit].

With CCCCCCOc1ccc(-c2nc3ccc(Br)cc3c(=O)o2)cc1 as the molecule, how does the Potency read?
Its Potency is inconclusive [inhibitor, single point].

CC(=O)Nc1ccc(S(=O)(=O)N2CCSC2c2ccc(Cl)cc2)cc1 (stereo unspecified) was tested. Which Potency did it give?
The Potency was inconclusive [inhibitor, partial curve].
